Laboratory results taken from the supplement of paper PMC4604168 (melanoma cell lines).
This is one part of the list. Single values are uncertain, as repeats are few or missing.

Legend:
Test in all cases: cell count relative to DMSO control; melanoma cells; higher = more viable cells
Conditions in all cases: library dose: standard library concentration; 72 h
SkMel30 = tested on: SkMel30
SkMel5 = tested on: SkMel5
UACC257 = tested on: UACC257
UACC62 = tested on: UACC62
WM115 = tested on: WM115
WM1716 = tested on: WM1716
WM1745 = tested on: WM1745
WM3526 = tested on: WM3526
WM3619 = tested on: WM3619
WM451Lu = tested on: WM451Lu
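Note: cells treated in 1,536-well plates, then fixed and DAPI-stained, with nuclei counted from automated high-throughput microscope images.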

Row | SMILES | cell count (SkMel30) [%] | cell count (SkMel5) [%] | cell count (UACC257) [%] | cell count (UACC62) [%] | cell count (WM115) [%] | cell count (WM1716) [%] | cell count (WM1745) [%] | cell count (WM3526) [%] | cell count (WM3619) [%] | cell count (WM451Lu) [%]
1 | CCN(CC)CCCCNc1ncc2cc(-c3cc(OC)cc(OC)c3)c(NC(=O)NC(C)(C)C)nc2n1 + Cc1cc([N+](=O)[O-])ccc1NS(=O)(=O)c1cc(Cl)ccc1Cl [FH535] (first compound 0.5 µM, partner dose 5 µM) | 91.9 | 58.3 | 79.9 | 93.9 | 86.6 | 77.2 | 81 | 73.6 | 73.5 | 80.5
2 | COc1ccc(COc2ccc(Cc3cnc(N)nc3N)cc2OC)cc1 + c1cc(-c2cnn3cc(-c4ccc(OCCN5CCCCC5)cc4)cnc23)ccn1 [Dorsomorphin] (first compound 5 µM, partner dose 2 µM) | 76.9 | 65.6 | 72.3 | 73.5 | 92.1 | 84.5 | 33.2 | 71.9 | 80.3 | 70.8
3 | O=C1NC(=O)/C(=C/c2ccc(-c3ccc(F)cc3O)o2)S1 + CC(C)CCN1c2nc(Nc3cc(F)c(O)c(F)c3)ncc2N(C)C(=O)C1C [BID1870] (first compound 5 µM, partner dose 1 µM) | 75.7 | 59.9 | 76.4 | 53.8 | 94 | 84.5 | 78.1 | 60.5 | 67.9 | 85.2
4 | N#Cc1c(O)c2c(-c3ccc(-c4ccccc4O)cc3)csc2[nH]c1=O + O=c1cc(-c2cccc3c2Sc2ccccc2S3)oc(N2CCOCC2)c1 [KU55933] (first compound 10 µM, partner dose 5 µM) | 106 | 88.5 | 107 | 103 | 135 | 92.5 | 95 | 74.5 | 92.5 | 95.5
5 | O=C1NC(=O)/C(=C/c2ccc(-c3ccc(F)cc3O)o2)S1 + Cn1cc(/C=C2\C(=O)Nc3cccnc32)c2ccccc21 [GW441756] (first compound 5 µM, partner dose 2 µM) | 112 | 73.8 | 76.8 | 101 | 89.4 | 104 | 75.8 | 78.4 | 93.6 | 107
6 | COc1cc2ncnc(Nc3ccc(Oc4ccccc4)cc3)c2cc1OC + Cc1cc([N+](=O)[O-])ccc1NS(=O)(=O)c1cc(Cl)ccc1Cl [FH535] (first compound 10 µM, partner dose 5 µM) | 78.2 | 39.2 | 56.9 | 80.9 | 60.3 | 55.7 | 50.2 | 46.2 | 50.7 | 64.2
7 | COc1cc2ncnc(Nc3ccc(Oc4ccccc4)cc3)c2cc1OC + O=C1NC(=O)/C(=C/c2ccc(-c3ccc(F)cc3O)o2)S1 [AS252424] (first compound 10 µM, partner dose 5 µM) | 91.1 | 73.8 | 99.6 | 84.6 | 95.6 | 78.2 | 64.9 | 64.6 | 61.7 | 90.4
8 | N#Cc1c(O)c2c(-c3ccc(-c4ccccc4O)cc3)csc2[nH]c1=O + COc1ccc(-c2ccc3c(N4CCOCC4)nc(N4C[C@@H](C)O[C@@H](C)C4)nc3n2)cc1CO [KU0063794] (first compound 10 µM, partner dose 0.1 µM) | 108 | 78.7 | 93.9 | 85.7 | 82.5 | 98.8 | 110 | 99 | 63.5 | 84
9 | Cn1cc(/C=C2\C(=O)Nc3cccnc32)c2ccccc21 + O=c1cc(-c2cccc3c2Sc2ccccc2S3)oc(N2CCOCC2)c1 [KU55933] (first compound 2 µM, partner dose 5 µM) | 97.4 | 77.3 | 70.4 | 110 | 88.9 | 104 | 73.8 | 86.2 | 89.1 | 87.4
10 | COc1ccc(-c2ccc3c(N4CCOCC4)nc(N4C[C@@H](C)O[C@@H](C)C4)nc3n2)cc1CO + O=S(=O)(c1ccccc1)N(CC(F)(F)F)c1ccc(C(O)(C(F)(F)F)C(F)(F)F)cc1 [T0901317] (first compound 0.1 µM, partner dose 7 µM) | 71.7 | 59.2 | 67.6 | 75.5 | 70.7 | 82.2 | 78.1 | 66.9 | 60.4 | 76.9
11 | COC(=O)c1sccc1S(=O)(=O)Nc1ccc(Nc2ccccc2)cc1OC + Oc1nc(-c2ccc(C(F)(F)F)cc2)nc2c1CSCC2 [XAV939] (first compound 5 µM, partner dose 10 µM) | 112 | 67.5 | 77.8 | 79.2 | 78.9 | 78.1 | 65.4 | 92.5 | 95.6 | 85
12 | Oc1cc(-c2nc(-c3ccccc3)[nH]c2-c2ccncc2)ccc1Cl + Cc1cc([N+](=O)[O-])ccc1NS(=O)(=O)c1cc(Cl)ccc1Cl [FH535] (first compound 1 µM, partner dose 5 µM) | 78.8 | 57.7 | 72.3 | 63.9 | 41.3 | 65.9 | 63.3 | 47.6 | 78 | 53.4
13 | O=C(O)C(=O)Nc1sc2c(c1C(=O)O)CCNC2 + Cn1cc(/C=C2\C(=O)Nc3cccnc32)c2ccccc21 [GW441756] (first compound 8.33333 µM, partner dose 2 µM) | 104 | 67 | 80.9 | 113 | 104 | 79.1 | 66.5 | 98.4 | 74.6 | 105
14 | COc1cc(N2CCC(N3CCN(C)CC3)CC2)ccc1Nc1ncc(Cl)c(Nc2ccccc2S(=O)(=O)C(C)C)n1 + O=c1cc(-c2cccc3c2Sc2ccccc2S3)oc(N2CCOCC2)c1 [KU55933] (first compound 0.4 µM, partner dose 5 µM) | 103 | 68.9 | 82.2 | 81.1 | 86.1 | 79.7 | 43.7 | 56.8 | 77.3 | 71.6
15 | Oc1cc(-c2nc(-c3ccccc3)[nH]c2-c2ccncc2)ccc1Cl + O=c1cc(-c2cccc3c2Sc2ccccc2S3)oc(N2CCOCC2)c1 [KU55933] (first compound 1 µM, partner dose 5 µM) | 83.9 | 66.1 | 102 | 61.9 | 42.3 | 71.1 | 58 | 60.6 | 67.8 | 58.9
16 | c1cc(-c2cnn3cc(-c4ccc(OCCN5CCCCC5)cc4)cnc23)ccn1 [Dorsomorphin] + O=c1cc(-c2cccc3c2Sc2ccccc2S3)oc(N2CCOCC2)c1 [KU55933] (first compound 2 µM, partner dose 5 µM) | 101 | 68.8 | 81.8 | 71.8 | 63.6 | 73.5 | 77 | 65 | 97.4 | 75.6
17 | CCN(CC)CCCCNc1ncc2cc(-c3cc(OC)cc(OC)c3)c(NC(=O)NC(C)(C)C)nc2n1 + Oc1nc(-c2ccc(C(F)(F)F)cc2)nc2c1CSCC2 [XAV939] (first compound 0.5 µM, partner dose 10 µM) | 108 | 77.8 | 86.6 | 103 | 78.2 | 78.1 | 68.5 | 85.9 | 92.2 | 89.2
18 | Oc1cc(-c2nc(-c3ccccc3)[nH]c2-c2ccncc2)ccc1Cl + O=C(O)C(=O)Nc1sc2c(c1C(=O)O)CCNC2 [TCS401] (first compound 1 µM, partner dose 8.33333 µM) | 121 | 70.6 | 99.4 | 71 | 52.9 | 76.6 | 53.7 | 55.8 | 82.9 | 46
19 | COc1cc(N2CCC(N3CCN(C)CC3)CC2)ccc1Nc1ncc(Cl)c(Nc2ccccc2S(=O)(=O)C(C)C)n1 + CCCCCCCCCCCC1=C(O)C(=O)C=C(O)C1=O [Embelin] (first compound 0.4 µM, partner dose 6 µM) | 112 | 67 | 88 | 91 | 70.2 | 85.2 | 55.3 | 79.5 | 79.6 | 4.66
20 | CCN(CC)CCCCNc1ncc2cc(-c3cc(OC)cc(OC)c3)c(NC(=O)NC(C)(C)C)nc2n1 + O=c1cc(-c2cccc3c2Sc2ccccc2S3)oc(N2CCOCC2)c1 [KU55933] (first compound 0.5 µM, partner dose 5 µM) | 109 | 104 | 121 | 114 | 90.4 | 92.4 | 82.8 | 70.3 | 77.4 | 112
21 | Cn1cc(/C=C2\C(=O)Nc3cccnc32)c2ccccc21 + CC(C)CCN1c2nc(Nc3cc(F)c(O)c(F)c3)ncc2N(C)C(=O)C1C [BID1870] (first compound 2 µM, partner dose 1 µM) | 70.2 | 58.8 | 73.7 | 64.5 | 103 | 95.1 | 81.7 | 77.3 | 74 | 87.8
22 | Cc1cc([N+](=O)[O-])ccc1NS(=O)(=O)c1cc(Cl)ccc1Cl + CC(C)CCN1c2nc(Nc3cc(F)c(O)c(F)c3)ncc2N(C)C(=O)C1C [BID1870] (first compound 5 µM, partner dose 1 µM) | 72.1 | 75 | 72.2 | 75.9 | 91.7 | 61 | 96.2 | 61.2 | 86.1 | 90.6
23 | COC(=O)c1sccc1S(=O)(=O)Nc1ccc(Nc2ccccc2)cc1OC + CCCCCCCCCCCC1=C(O)C(=O)C=C(O)C1=O [Embelin] (first compound 5 µM, partner dose 6 µM) | 93.9 | 124 | 82.8 | 96.4 | 101 | 93.5 | 102 | 127 | 64.8 | 86.8
24 | O=C(O)C(=O)Nc1sc2c(c1C(=O)O)CCNC2 + c1cc(-c2cnn3cc(-c4ccc(OCCN5CCCCC5)cc4)cnc23)ccn1 [Dorsomorphin] (first compound 8.33333 µM, partner dose 2 µM) | 82.4 | 70.8 | 71.8 | 95.9 | 77.4 | 73.3 | 50.9 | 78.6 | 89.2 | 81.8
